Data on 167 variants can be found in the RNAGym collection of RNA variant scans (doi:10.7554/elife.90254).

The source gives no read counts; variants with many changes may rest on few reads.

B1: OR4K15 (parent)
chain: GUUAACGGUCAUAGGCCAUGGAAACUAGGAGCACCAUUUCGCUGCCAGUGAAGAAAUGAACAAAGAAAAUCUGGGCCAGGCAGGCAUCAAAAGAAAUAGUCUUGCGCUCAACCAGAAAGUCUGUAAUCAUUUUAAGGGUA

The variants in the data set derive from B1. Description: self-cleavage, relative activity (ratio to wild type); higher = more cleavage; in vitro, sequencing; the parent is a self-cleaving ribozyme.
With A4G U19C A22G U37C A94G U100C U139C, the self-cleavage came out at 1.5. As for A5G A13G A68G A69G, the figure is 0.86; as for A4G A68G A96U, 1.24; as for A5G A62U A86G U103C U120A, 0.76. Under A4G A66G U70C A92G stands 0.69; under A4G A24G A54G A82G U87C A110C, 0.17.

For U3A U39C A64U A96G, the self-cleavage amounted to 0.56.

Take U3C A59G A60G A62G A126G: the self-cleavage is 0.85. Under A5G A13U A24G G28A A47C A68G A126G stands 0.54; under U3G A66G U132C, 1.03; under A5G A11G A69G U130C, 0.77. Under U3C A67G A95G stands 1.39; under U3C A13U C77U U87C U132C, 1.29; under U3C A30G U37C A90G, 1.34.

Consider A5G A62G G123A, for which the self-cleavage is 0.95. Take A5G A27G U37C A94G: the self-cleavage was 0.65. Under U3A A64G A114U stands 0.21. As for U3C A22G U38C A55G A59U A117G, the figure is 2.84. U3C A54G U70C: the self-cleavage came to 0.58. As for U3C U100C G123A, the figure is 1.51; as for A5G A18G A52G U57A A62G A68G A82G A91G U131C, 0.

For A5G A30G C46U A51G, the self-cleavage came out at 0.96. As for U3C A18U A110U U130C, the figure is 0.47. As for A5G A30G A64G A67G, the figure is 1.07.

Take U3C U72A U103C U127C U132A: the self-cleavage turned out to be 0.04.

With A4G U38A U43C U72G, the self-cleavage was 0.3. On to A5G A54G U57C A126G U127C, for which the self-cleavage is 0.3. As for U3C A52G A92G, the figure is 0.75; as for A4G G48A A129G, 1.01. Under A4G A82U C85U stands 0.33; under A5G A24G G83A, 0.84; under A4G A11G U57C A62G, 1.03. A5G A51G A125G U131C: the self-cleavage came to 0.29. Regarding A5G A13U A23G U97A U132C, the self-cleavage was 1.27. Turning to A4G A69G A118G U122C, the self-cleavage came to 1.1.

Turning to A5G A47G A64G, the self-cleavage is 1.16.

Turning to U3C A60C A66G A116G, the self-cleavage came out at 0.54. As to A5G A24G A47G A67G, the self-cleavage was determined as 1.85.

As for A5C A62G C76A A95C A114G, the self-cleavage is 0.07. As for U3C A89G A110G U122C, the figure is 0.03; as for A5G A18G A23G A24G U43C A118G, 0.67. Under U2G U103C U127C A129G stands 0.12; under U3A U103C U108A, 0.02; under A4G U43A A140G, 1.59. Under A4U A24G U26A stands 1.25; under U3C A56G U127A, 0.93; under A4G U87C U103C A111G U132C, 0.02. With U3C U39C A64G A91U, the self-cleavage turned out to be 0.96. Under U3C A47G A78G stands 0.23; under U3C A60G A111G A118G U122C A135G, 0. As for U3C U57C A62G U70C A92G A114G, the figure is 0.05. As for A5G A24G U43A A96G A117G, the figure is 2.37. Turning to A5G A13G A63U A90G C113A, the self-cleavage amounted to 0.06.

For the variant A5G A47G A54G U57C, the self-cleavage was 0.51. Under A4G A56G A64U A92G stands 0.42; under U3C A51G A54G, 0.93. Turning to U3C A114G A135G, the self-cleavage was 0.44. On to A5G A56G A60G C76U A78G U122C, for which the self-cleavage is 0.14. Regarding U3C A22U A30G A33G, the self-cleavage was 1.44. On to A5G A23G A62G A69C U72C A94G, for which the self-cleavage was 0.15. As for A4G A52C A60G U103C U130C, the figure is 0.6.

With A4G U19G A86U A96G U127G, the self-cleavage was 1.71. Turning to A4G A96G U139A, the self-cleavage stood at 1.18.

Regarding A4G G73A A82U A125G, the self-cleavage was 0.

With A4G A24G A30G, the self-cleavage is 1.7. Under A5G A24G A52U U87C stands 1.05; under U3C A24G A86G U130C, 0.46; under A4G A11G A24U A63G, 0.97. As for U3C A64G A140G, the figure is 1.1. Under A5C A63G A114G A117G stands 0.64; under U3C U49C U57A A98G U131C, 0.24. As for U3C A36G U132C, the self-cleavage stood at 1.64.

Take U3C U70C A92G U122C: the self-cleavage turned out to be 0.1. In the case of A5G A11G U19C A51G, the self-cleavage was found to be 0.57. Under A5C C109U A117G U132C A135G stands 0.37. As for A5G A55G C112A, the figure is 0; as for A5G A30G A36U A68G G75C C88U U100C C105A, 0. Under A5G A47G A78G U102C stands 0.4; under A4G A18G U139A, 1.13. With A4G A33C A51G U102C, the self-cleavage was 0.95. U3C U38C A90G U130C: the self-cleavage was 0.23. Under U3C A59U A67G stands 1.47. Under A5G A24G A63G stands 0.71; under U3C A62G A78U U102C, 1.48; under A4G U49G A54G, 0.79. As for A5G A60G U103A, the figure is 0.32; as for A4G A90G U122A, 0.28; as for A5G A18G U72A A92G A118G U130C, 0.13.

In the case of A5G A55G A68G U127C, the self-cleavage was found to be 0.61. Under A5G A62G U100A U127C stands 0.1; under A5C A54G A60G A68G U70A, 0.79; under A5G A23U U43C A140G, 1.36.

For A4G A86G A94G, the self-cleavage worked out at 1. As for A5G A47G A60G, the figure is 0.64. Under A4U U9C U12C U124A stands 0.93; under U3C A111G A117G, 0.02; under A4G U39C A69U, 1.04. As for A5G A18G A51U A96U, the self-cleavage was determined as 0.29. Under U3C U9C G29U A94G stands 1.55; under U3C A55U A59C A89G U100C A114U, 0.05; under U3C A24G U49C, 1.42. On to A4G U12C A22G A36G A125U U131C, for which the self-cleavage was determined as 1.06. Consider A5C U12C A140C, for which the self-cleavage was determined as 1.49. As to U3A A4G U37C, the self-cleavage worked out at 0.77. As for A5G A18U G29U A55G, the figure is 1.04; as for A5G A36G A67G, 0.79; as for A4G A55C A69G U102C U139A, 2.67.

As for A4G G29A A67G, the self-cleavage stood at 1.55. Under U3C U39C A63U A67G A86G U97A stands 1.65; under A5G A36G A66C A94G, 1.02; under A5G A18G A24G A62G U132A, 1.35. For A5G A51G A64U, the self-cleavage was determined as 0.5. As for A5G A11G A62G, the figure is 1.93; as for A4C U38C U100C, 1.52. As for A5C A62G A90G, the figure is 1.53; as for A5G A33G A68G, 0.94; as for A5G A51G A86G A89G, 0.51.

Consider A4G A134G A140G, for which the self-cleavage is 1.06.

Regarding A5G A27G A62G A95G, the self-cleavage came to 1.54. Under U3C A33G A51G A63U U87C A98G stands 1.16.

As to A4G A22G U72A A86U A116G, the self-cleavage came out at 0.18. Under A4U A30G A59G stands 0.68. Under A4G A56G A69G A89G U102C A118G stands 0.89; under A4G A22G A23G U37C A59G A92G A114U, 0.03; under A4G U19C U38C A51G, 0.98. Turning to A5G A56G U127C, the self-cleavage was 1.25.

As for A4G A66G U108C A116G, the self-cleavage worked out at 0.03. In the case of A5G A54G G80U, the self-cleavage is 0.13.

Turning to U3A A86U U87C U102C, the self-cleavage turned out to be 0.97. Under A5G A11U U49C U100C stands 1.38; under U3C U37C A54G A69G, 1.37; under A4G G31A A63U A89G U108C, 0.02.

For A5G A55G A59U U100C U108A A140G, the self-cleavage worked out at 0.05. Under U3C A5G A22U A27G A52G A110C stands 0.4. U3C A66G A78U U133C: the self-cleavage turned out to be 0.34. Under A5G A24G A68G A116G A135G stands 0.91; under U3C A89G A90G U131C, 0.84. As for A5G A23U U26C A98G A118G U124A, the figure is 0.15; as for U3C A30G G79A, 0.17. Under A5G A23G G41U A47U U120C stands 0.34; under A4G A51G A62G A68G, 1.4. For the variant A4G A95G U130C, the self-cleavage was determined as 1.56. As for A4G C85G A135G, the figure is 1.34; as for A5C G48A A78U, 0.62. As for A4G A64G A86G U124C U130C, the figure is 0.27; as for A5G A27G A90G A111G, 0.08; as for U3C G104A A126G, 0.06. For the variant U3G U43C A86G C101U, the self-cleavage turned out to be 0.14. Under A5G A36U U57C stands 0.44; under A5G A11G A64G U131C, 1.01. Under U3C A23G A33U A68G U100C stands 1.4. As for U3A A36U U124A, the figure is 1.12.

For the variant A4G U12C A54G A125G, the self-cleavage stood at 0.35. Under U3C U37C U132C stands 1.35. Turning to A5G A11G A66C A69G A82U A94G A96G U122A, the self-cleavage came out at 0.08. Under A5G A11G A23C U39C G50A A67G stands 0.88; under A4G A67G A92G A118G, 0.61. As to U3A A47U A67G, the self-cleavage was found to be 1.59. As for A5G A11U A24G A126G, the figure is 0.87. Under A5G A22G A55G U100C C109U stands 0.73.

As for A5G A22G U37C A59G A118G, the self-cleavage turned out to be 0.1. Under U3C U37C U43C stands 1.42; under U3C A24G U70C A98G, 0.14. In the case of A4U C77U A96G, the self-cleavage is 1.21. As for A5G A55G A86G A90G A96G, the figure is 1.62; as for U3C A89C U130C U132C, 1.01; as for U3C A63G G73A A96G, 0.14.
